Reference: the supplement of paper PMC12582362
Structures can show the parent of a compound that is named as a salt. Hit rate of the full screen: of about 1,500 compounds, about 30 (2%) showed activity.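 How the source made its calls: active = robust z-score below -2; a few such results were not called.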 The list shows a part of the results.

test system: optoTopBP1 Flp-In 293 T-REx (HEK293) cells; test: light-induced TopBP1 condensate (nuclear foci) count, plate-normalised robust z-score vs non-control wells; higher = more TopBP1 condensates (negative = condensation inhibitor), active = hit call of the paper; settings: 10 µM; incubation time 2 h

Compound | light-induced TopBP1 condensate (z-score)
O=C(O)c1ccccc1C(=O)Nc1ccc(S(=O)(=O)Nc2nccs2)cc1 [Phthalylsulfathiazole] | inactive: -0.678
CC(=O)OC(C)OC(=O)C(C)c1ccc(-c2ccccc2)c(F)c1 (stereo not given) [Flurbiprofen axetil] | inactive: -0.559
CO[C@@H]1[C@@H](O[C@@H]2O[C@H](C)[C@@H](O[C@H]3C[C@@](C)(O)[C@@H](OC(=O)CC(C)C)[C@H](C)O3)[C@H](N(C)C)[C@H]2O)[C@@H](CC=O)C[C@@H](C)[C@@H](O)/C=C/C=C/C[C@@H](C)OC(=O)C[C@H]1OC(C)=O [Josamycin] | inactive: 0.593
CC(=O)CC(c1ccccc1)c1c(O)c2ccccc2oc1=O (stereo not given) [Warfarin] | inactive: 0.476
CCC(=O)O[C@@H]1CC(=O)O[C@H](C)C/C=C/C=C/[C@H](O)[C@H](C)C[C@H](CC=O)[C@H](O[C@@H]2O[C@H](C)[C@@H](O[C@H]3C[C@@](C)(O)[C@@H](OC(=O)CC)[C@H](C)O3)[C@H](N(C)C)[C@H]2O)[C@H]1OC [Midecamycin] | inactive: 0.963
CCN(CC)CC(=O)Nc1c(C)cccc1C [Lidocaine hydrochloride] | inactive: 1.15
c1ccc2c(CC3=NCCN3)cccc2c1 [Naphazoline hydrochloride] | inactive: 0.384
CC(=O)OCC(=O)[C@@]12OC(C)(C)O[C@@H]1C[C@H]1[C@@H]3C[C@H](F)C4=CC(=O)C=C[C@]4(C)[C@@]3(F)[C@@H](O)C[C@@]12C [Fluocinonide] | inactive: 1.06
C=CC1=C(C(=O)O)N2C(=O)[C@@H](NC(=O)/C(=N\O)c3csc(N)n3)[C@H]2SC1 [Cefdinir] | inactive: 0.295
CC(=O)NS(=O)(=O)c1ccc(N)cc1 [Sulfacetamide sodic hydrate] | inactive: 0.766
Cc1cn([C@H]2C=C[C@@H](CO)O2)c(=O)[nH]c1=O [Stavudine] | inactive: -0.356
Cc1c(NC(=O)c2cccnc2)c(=O)n(-c2ccccc2)n1C [Nifenazone] | inactive: 0.773
CS(=O)(=O)OCCCCOS(C)(=O)=O [Busulfan] | inactive: 0.846
N[C@@H](Cc1c[nH]c2ccccc12)C(=O)O [L-tryptophan] | inactive: 0.55
CO/N=C(\C(=O)N[C@@H]1C(=O)N2C(C(=O)[O-])=C(C[n+]3cccc4c3CCC4)CS[C@H]12)c1csc(N)n1 [Cefpirome] | inactive: 0.182
CC(C)NC[C@@H](O)COc1ccc(CC(N)=O)cc1 [(R)-(+)-Atenolol] | inactive: -0.871
NS(=O)(=O)c1cc2c(cc1C(F)(F)F)NCNS2(=O)=O [Hydroflumethiazide] | inactive: 0.166
CC[C@@H]1C(=O)OC[C@@H]1Cc1cncn1C [Pilocarpine nitrate] | inactive: 0.176
NC(=O)c1cnccn1 [Pyrazinamide] | inactive: 0.106
N/C(=N\C(=O)c1nc(Cl)c(N)nc1N)NCc1ccccc1 [Benzamil hydrochloride] | inactive: -0.0733
O=C(CCNNC(=O)c1ccncc1)NCc1ccccc1 [Nialamide] | inactive: 0.388
N#C/C(=C1/SCC(c2ccccc2Cl)S1)n1ccnc1 (stereo not given) [Lanoconazole] | inactive: 0.321
CSc1nc2cc(Cl)c(Oc3cccc(Cl)c3Cl)cc2[nH]1 [Triclabendazole] | active: -2.43
Cc1nc2ccccn2c(=O)c1CCN1CCC(C(=O)c2ccc(F)cc2)CC1 [Pirenperone] | inactive: 0.141
COc1cccc2c1C(=O)c1c(O)c3c(c(O)c1C2=O)C[C@@](O)(C(=O)CO)C[C@@H]3O[C@H]1C[C@H](N)[C@@H](O)[C@H](C)O1 [Epirubicin hydrochloride] | active: -3.05
CCCN(CCC)CCc1cccc2c1CC(=O)N2 [Ropinirole hydrochloride] | inactive: -0.884
CC(=O)O[C@H]1C(=O)[C@@]2(C)[C@H]([C@H](OC(=O)c3ccccc3)[C@]3(O)C[C@H](OC(=O)[C@H](O)[C@@H](NC(=O)c4ccccc4)c4ccccc4)C(C)=C1C3(C)C)[C@]1(OC(C)=O)CO[C@@H]1C[C@@H]2O [Paclitaxel] | inactive: -0.341
Cc1ncc([N+](=O)[O-])n1CC(C)O (stereo not given) [Secnidazole] | inactive: 0.994

Compound | light-induced TopBP1 condensate (z-score)
C/C=C(/C(=C/C)c1ccc(O)cc1)c1ccc(O)cc1 [Dienestrol] | inactive: 0.23
O=C(O)c1ccccc1OP(=O)(O)O [Fosfosal] | inactive: -0.403
COc1ccc2cc([C@H](C)C(=O)O)ccc2c1 [Naproxen] | inactive: 1.22
Nc1cc(N2CCCCC2)nc(N)[n+]1[O-] [Minoxidil] | inactive: -0.364
CC1(C)S[C@@H]2[C@H](NC(=O)[C@H](N)c3ccccc3)C(=O)N2[C@H]1C(=O)O [Ampicillin trihydrate] | inactive: 0.799
CC1(C)S[C@@H]2[C@H](NC(=O)[C@H](N)c3ccccc3)C(=O)N2[C@H]1C(=O)O [Ampicillin sodium salt] | inactive: -0.184
O=C(O)c1cc(=O)[nH]c(=O)[nH]1 [Orotic acid] | inactive: -0.185
O=c1n(CCCN2CCN(c3cccc(Cl)c3)CC2)nc2ccccn12 [Trazodone hydrochloride] | inactive: -0.662
CCC(NC(C)C)C(O)c1ccc(O)c2[nH]c(=O)ccc12 (stereo not given) [Procaterol hydrochloride] | inactive: 0.39
Nc1ncnc2c1ncn2C1OC(COP(=O)(O)O)C(O)C1O (stereo not given) [Adenosine 5'-monophosphate monohydrate] | inactive: 0.412
C[C@@H]1C[C@H]2[C@@H]3CCC4=CC(=O)C=C[C@]4(C)[C@@]3(Cl)[C@@H](O)C[C@]2(C)[C@@]1(OC(=O)c1ccco1)C(=O)CCl [Mometasone furoate] | inactive: -1.03
CN1CCCN(C(c2ccccc2)c2ccc(Cl)cc2)CC1 (stereo not given) [Homochlorcyclizine dihydrochloride] | inactive: -1.89
CCOC(=O)[C@H](CCc1ccccc1)N[C@@H](C)C(=O)N1C(=O)N(C)C[C@H]1C(=O)O [Imidapril hydrochloride] | inactive: -0.111
CCOc1ccc2nc(S(N)(=O)=O)sc2c1 [Ethoxzolamide] | inactive: -0.981
CCCCc1ccc2[nH]c(NC(=O)OC)nc2c1 [Parbendazole] | inactive: -0.867
O=c1oc2cc(O)ccc2s1 [Tioxolone] | inactive: 0.00597
C/C(=C\C(=O)OCCCCCCCCC(=O)O)C[C@@H]1OC[C@H](C[C@@H]2O[C@H]2[C@@H](C)[C@H](C)O)[C@@H](O)[C@H]1O [Mupirocin] | inactive: 0.229
CCc1cccc(CC)c1NC(=O)CN(CC(=O)O)CC(=O)O [Etifenin] | inactive: 0.43
CN/C(=N\CCSCc1nc[nH]c1C)NC#N [Cimetidine] | inactive: 0.0364
O=C(O)c1cc(/N=N/c2ccc(S(=O)(=O)Nc3ccccn3)cc2)ccc1O [Sulfasalazine] | inactive: -0.0783
CN1CCCN=C1/C=C/c1cccc(O)c1 [Oxantel pamoate] | inactive: -0.325
CC(N)CCCC(C)(C)O (stereo not given) [Heptaminol hydrochloride] | inactive: 0.486
CC1(C)S[C@@H]2[C@H](NC(=O)C3(N)CCCCC3)C(=O)N2[C@H]1C(=O)O [Cyclacillin] | inactive: -0.29
CC=CC1=C(C(=O)O)N2C(=O)[C@@H](NC(=O)[C@H](N)c3ccc(O)cc3)[C@H]2SC1 [Cefprozil] | inactive: -1.03
Cc1cc2c(s1)Nc1ccccc1N=C2N1CCN(C)CC1 [Olanzapine] | inactive: -0.0376
Cc1c(O)c(=O)n(-c2ccccc2)n1C [Antipyrine, 4-hydroxy] | inactive: 0.759
CC(C)OC(=O)C(C)(C)Oc1ccc(C(=O)c2ccc(Cl)cc2)cc1 [Fenofibrate] | inactive: -0.333
